# Test results: PMC4336329 (PLoS ONE, 2015)
# In all, about 310,000 compounds went through this assay and about 14,000 (4.5%) showed an effect of 50% or more. Effects have a minus sign here. Some of the results follow.
# Target: human ether-à-go-go-related gene (hERG) potassium channel (human, UniProt Q12809)
# Experiment: primary screen, population patch clamp on CHO cells stably expressing hERG
# 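Note: peak tail current of the secondary pulse compared with the same well before compound.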
# Sequence of human ether-à-go-go-related gene (hERG) potassium channel (Q12809 whole entry, looked up): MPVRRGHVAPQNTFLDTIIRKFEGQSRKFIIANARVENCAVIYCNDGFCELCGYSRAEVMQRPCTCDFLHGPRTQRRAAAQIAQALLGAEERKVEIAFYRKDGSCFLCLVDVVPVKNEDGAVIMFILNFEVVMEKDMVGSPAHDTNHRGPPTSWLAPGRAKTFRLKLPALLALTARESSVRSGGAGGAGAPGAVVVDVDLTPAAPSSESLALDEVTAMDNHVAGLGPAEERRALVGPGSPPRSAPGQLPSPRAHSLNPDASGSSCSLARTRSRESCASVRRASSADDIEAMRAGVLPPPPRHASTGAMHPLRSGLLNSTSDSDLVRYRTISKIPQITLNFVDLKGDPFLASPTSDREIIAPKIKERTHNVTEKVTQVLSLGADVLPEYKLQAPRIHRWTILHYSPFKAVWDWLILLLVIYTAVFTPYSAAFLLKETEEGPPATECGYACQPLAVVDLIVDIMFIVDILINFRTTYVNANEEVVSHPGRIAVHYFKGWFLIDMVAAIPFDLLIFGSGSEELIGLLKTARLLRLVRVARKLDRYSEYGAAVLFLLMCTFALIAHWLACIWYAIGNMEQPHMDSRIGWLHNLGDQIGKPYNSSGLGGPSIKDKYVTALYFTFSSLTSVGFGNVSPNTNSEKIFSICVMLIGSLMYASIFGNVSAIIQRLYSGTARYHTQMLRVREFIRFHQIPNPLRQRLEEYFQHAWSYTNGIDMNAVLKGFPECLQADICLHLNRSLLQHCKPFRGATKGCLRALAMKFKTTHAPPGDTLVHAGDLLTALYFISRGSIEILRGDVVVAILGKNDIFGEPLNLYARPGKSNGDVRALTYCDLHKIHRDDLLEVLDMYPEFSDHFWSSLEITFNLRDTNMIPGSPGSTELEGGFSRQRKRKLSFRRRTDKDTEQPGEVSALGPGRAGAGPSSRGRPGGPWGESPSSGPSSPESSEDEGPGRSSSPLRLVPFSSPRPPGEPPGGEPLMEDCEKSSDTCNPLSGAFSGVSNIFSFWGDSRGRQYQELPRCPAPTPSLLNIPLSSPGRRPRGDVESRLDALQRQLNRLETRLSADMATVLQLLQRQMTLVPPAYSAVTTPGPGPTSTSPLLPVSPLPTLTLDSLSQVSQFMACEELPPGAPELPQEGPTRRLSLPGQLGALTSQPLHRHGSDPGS
row,Compound,"hERG current change (%, negative = inhibition) at 10uM"
1,O=C(NC(NC(=S)N1CCOCC1)C(Cl)(Cl)Cl)c1cccc2ccccc12 (stereo not shown),-13.9%
2,COc1ccc(C(NC(=O)c2cc(OC)ccc2OC)c2ccccc2)cc1 (stereo not shown),-18.6%
3,Cc1cc(C)n(CC(=O)NCc2cc(-c3nn(C)c(=O)c4ccccc34)ccc2C)n1,-10.7%
4,C=CCNc1nc(-c2c(C)nc3ncccn23)cs1,-0.737%
5,Clc1ccccc1Cn1nnc(-c2ccccc2)n1,4.02%
6,COc1ccc(CCN2CCCC(CN(C)Cc3cccc(OC)c3)C2)cc1 (stereo not shown),-60.6%
7,NS(=O)(=O)c1ccc(NC(=S)NCc2cccs2)cc1,13.4%
8,CCCOc1ccc(/C=N/NC(=O)C(=O)Nc2ccccn2)cc1,0.313%
9,CCOC(=O)c1ccc(N2CCOCC2)c(NS(=O)(=O)c2ccc(F)cc2)c1,10.6%
10,NC(CO)(CO)CO.Nc1ncnc2c1ncn2[C@@H]1O[C@H](COP(=O)(O)OP(=O)(O)OP(=O)(O)O)[C@@H](O)[C@H]1O.O,2.24%
11,Nc1ccc(S(=O)(=O)Nc2ccc(Cl)nn2)cc1,4.14%
12,O=C(CCl)c1ccc2c(c1)CCN2C(=O)C1CC1,-25.5%
13,COc1ccc(C(=O)COC(=O)CN2C(=O)NC3(CC(C)CC(C)(C)C3)C2=O)c(OC)c1 (stereo not shown),-31.5%
14,Cc1ccccc1OCCc1c(C)[nH]c(=S)[nH]c1=O,15.8%
15,CSC1=C(C#N)C(c2sccc2C)CC(=O)N1 (stereo not shown),18%
16,CC(C)COC(=O)c1cc(=O)[nH]c2ccccc12,-11.3%
17,Cc1ccc(S(=O)(=O)N(CC(O)CN2C(=O)NC(C)(C)C2=O)c2ccccc2)cc1 (stereo not shown),-37.7%
18,Cc1ccc(CNC(=O)c2ccc(CS(=O)(=O)c3ccccc3C)o2)cc1,-25.3%
19,CCOC(=O)c1c(/N=C/C2=C(O)CC(C)(C)CC2=O)sc2c1CCCC2,11.4%
20,CC(C)CNS(=O)(=O)c1ccc(OCC(=O)Nc2ccc3c(c2)OCO3)c(Cl)c1,2.71%
21,Cc1ccc(C(=O)N/N=C2\CCc3ccccc32)c(C)c1,3.72%
22,CCOC(=O)N1C=CC=C[C@@H]2[C@@H](N3C(=O)c4ccccc4C3=O)C(=O)N21,0.941%

row,Compound,"hERG current change (%, negative = inhibition) at 10uM"
1,CC(C)C(OC(=O)c1ccc(Cl)nc1)C(=O)NC1CCCCC1 (stereo not shown),14.3%
2,CCn1c(SCc2ccc(Cl)c(Cl)c2)nnc1C(C)NC(=O)c1ccc(OC)cc1 (stereo not shown),10%
3,CC(OCc1ccccc1)C(NC(=O)OC(C)(C)C)C(=O)NCC1CCCO1 (stereo not shown),-7.39%
4,Nc1cc(-c2ccc(Cl)cc2)nn1-c1ccccc1,12.7%
5,CCOc1ccc2nc3cc(NCc4ccc(OC)cc4)ccc3c(N)c2c1,-17.7%
6,CC(C)OCCCNC(=O)CN1C(=O)CSc2ccc(S(=O)(=O)N3CCCCC3)cc21,0.76%
7,O=C(CNC(=O)c1cccc(OC(F)F)c1)OCn1nnc2ccccc2c1=O,-2.85%
8,CC(C)Oc1ccc(/C(O)=C2/C(=O)C(=O)N(CCCn3ccnc3)C2c2cccnc2)cc1 (stereo not shown),13.6%
9,CC(C)Cc1ccc(C(=O)Nc2ccc(Cc3ccncc3)cc2)o1,-57.6%
10,Cc1csc2ncnc(N3CCN(C(=S)Nc4ccc(F)cc4F)CC3)c12,-30%
11,N#CCCN(C(=O)COC(=O)CCc1nc2ccccc2c(=O)[nH]1)c1ccc(F)cc1,1.57%
12,O=C(CSc1nnc(-c2ccccc2O)o1)Oc1ccc(OCc2ccccc2)cc1,20.1%
13,Cc1cc(C)c(C(=O)N2CCCC(N3CCN(c4cccc(C(F)(F)F)c4)CC3)C2)o1 (stereo not shown),-52.1%
14,COc1ccc(-n2nc3c(N4CCC(C(=O)NCc5ccccc5)CC4)nnc(C)c3c2C)cc1,16.3%
15,O=C(Nc1ccccc1N1CCCCC1)C1CCN(C(=O)c2ccc(Cl)cc2)CC1,-69.9%
16,COCC(=O)N(Cc1cc2ccc(C)cc2[nH]c1=O)c1ccccc1C,12.8%
17,CC(NC(=O)c1cccc(OC2CCN(C3CCN(C)CC3)CC2)c1)c1ccccc1 (stereo not shown),7.63%
18,COc1ccc(OC)c(CCNC(=O)c2ccc(CS(=O)(=O)c3ccc(Br)cc3)o2)c1,1.02%
19,CCc1cc2c(=O)n(-c3ccccc3)c(=S)[nH]c2s1,18.4%
20,O=C(Nc1ccccc1)C1=C[C@H](C2CC2)C[C@H](OCCCCO)O1,7.36%
21,COc1ccc(C2C(C#N)=C(N)OC3=C2C(=O)CCC3)cc1OC (stereo not shown),4.07%
